The chains are these.
B1: 167 (protein)
chain: HGEGTFTSDKSKQLAKRLVRHFIEWLIKGGHSSGKPPPKGGGGGGGSGGGGSGGGGSA[… human IgG4 Fc with changes …]GGGSGSAHPIPDSSPLLQFGGQVRQRYLYTDDACQTEAHLEIREDGTVGGAADQSPESLLQLKALKPGVIQILGVKTSRFLCQRPDGALYGSLHFDPEACSFRELLLEDGYNVYQSEAHGLPLHLPGCKSPHRDPAPRGPARFLPLPGLPPAPPEPPGILAPQPPDVGSSDPLSMVGSQGRSPSYAS
modifications: Fusion Protein
B2: 186 (protein)
chain: HGEGTFTSDKSKQLAERLAKLFIEWLIAGGHSSGKPPPKGGGGGGGSGGGGSGGGGSA[… human IgG4 Fc with changes …]GGGSGSAHPIPDSSPLLQFGGQVRQRYLYTDDACQTEAHLEIREDGTVGGAADQSPESLLQLKALKPGVIQILGVKTSRFLCQRPDGALYGSLHFDPEACSFRELLLEDGYNVYQSEAHGLPLHLPGCKSPHRDPAPRGPARFLPLPGLPPAPPEPPGILAPQPPDVGSSDPLSMVGSQGRSPSYAS
modifications: Fusion Protein
B3: 184 (protein)
chain: HGEGTFTSDKSKQLAERLVKLFIEWLIAGGHSSGKPPPKGGGGGGGSGGGGSGGGGSA[… human IgG4 Fc with changes …]GGGSGSAHPIPDSSPLLQFGGQVRQRYLYTDDACQTEAHLEIREDGTVGGAADQSPESLLQLKALKPGVIQILGVKTSRFLCQRPDGALYGSLHFDPEACSFRELLLEDGYNVYQSEAHGLPLHLPGCKSPHRDPAPRGPARFLPLPGLPPAPPEPPGILAPQPPDVGSSDPLSMVGSQGRSPSYAS
modifications: Fusion Protein
B4: 170 (protein)
chain: HGEGTFTSDKSKQLAKRLVREFIEWLIEGGHSSGKPPPKGGGGGGGSGGGGSGGGGSA[… human IgG4 Fc with changes …]GGGSGSAHPIPDSSPLLQFGGQVRQRYLYTDDACQTEAHLEIREDGTVGGAADQSPESLLQLKALKPGVIQILGVKTSRFLCQRPDGALYGSLHFDPEACSFRELLLEDGYNVYQSEAHGLPLHLPGCKSPHRDPAPRGPARFLPLPGLPPAPPEPPGILAPQPPDVGSSDPLSMVGSQGRSPSYAS
modifications: Fusion Protein
B5: 172 (protein)
chain: HGEGTFTSDKSKQLAKRLVRLFIEWLIKGGHSSGKPPPSGGGGGGGSGGGGSGGGGSA[… human IgG4 Fc with changes …]GGGSGSAHPIPDSSPLLQFGGQVRQRYLYTDDACQTEAHLEIREDGTVGGAADQSPESLLQLKALKPGVIQILGVKTSRFLCQRPDGALYGSLHFDPEACSFRELLLEDGYNVYQSEAHGLPLHLPGCKSPHRDPAPRGPARFLPLPGLPPAPPEPPGILAPQPPDVGSSDPLSMVGSQGRSPSYAS
modifications: Fusion Protein
B6: 182 (protein)
chain: HGEGTFTSDKSKQLAERLVRLFIEWLIAGGHSSGKPPPKGGGGGGGSGGGGSGGGGSA[… human IgG4 Fc with changes …]GGGSGSAHPIPDSSPLLQFGGQVRQRYLYTDDACQTEAHLEIREDGTVGGAADQSPESLLQLKALKPGVIQILGVKTSRFLCQRPDGALYGSLHFDPEACSFRELLLEDGYNVYQSEAHGLPLHLPGCKSPHRDPAPRGPARFLPLPGLPPAPPEPPGILAPQPPDVGSSDPLSMVGSQGRSPSYAS
modifications: Fusion Protein
B7: 181 (protein)
chain: HGEGTFTSDKSKQLAKRLAQEFIEWLIKGGHSSGKPPPKGGGGGGGSGGGGSGGGGSA[… human IgG4 Fc with changes …]GGGSGSAHPIPDSSPLLQFGGQVRQRYLYTDDACQTEAHLEIREDGTVGGAADQSPESLLQLKALKPGVIQILGVKTSRFLCQRPDGALYGSLHFDPEACSFRELLLEDGYNVYQSEAHGLPLHLPGCKSPHRDPAPRGPARFLPLPGLPPAPPEPPGILAPQPPDVGSSDPLSMVGSQGRSPSYAS
modifications: Fusion Protein
B8: 185 (protein)
chain: HGEGTFTSDKSKQLAERLAREFIEWLIAGGHSSGKPPPKGGGGGGGSGGGGSGGGGSA[… human IgG4 Fc with changes …]GGGSGSAHPIPDSSPLLQFGGQVRQRYLYTDDACQTEAHLEIREDGTVGGAADQSPESLLQLKALKPGVIQILGVKTSRFLCQRPDGALYGSLHFDPEACSFRELLLEDGYNVYQSEAHGLPLHLPGCKSPHRDPAPRGPARFLPLPGLPPAPPEPPGILAPQPPDVGSSDPLSMVGSQGRSPSYAS
modifications: Fusion Protein
B9: 169 (protein)
chain: HGEGTFTSDLSKQLAKRLVREFIEWLIEGGHSSGKPPPKGGGGGGGSGGGGSGGGGSA[… human IgG4 Fc with changes …]GGGSGSAHPIPDSSPLLQFGGQVRQRYLYTDDACQTEAHLEIREDGTVGGAADQSPESLLQLKALKPGVIQILGVKTSRFLCQRPDGALYGSLHFDPEACSFRELLLEDGYNVYQSEAHGLPLHLPGCKSPHRDPAPRGPARFLPLPGLPPAPPEPPGILAPQPPDVGSSDPLSMVGSQGRSPSYAS
modifications: Fusion Protein
B10: 183 (protein)
chain: HGEGTFTSDKSKQLAERLVREFIEWLIAGGHSSGKPPPKGGGGGGGSGGGGSGGGGSA[… human IgG4 Fc with changes …]GGGSGSAHPIPDSSPLLQFGGQVRQRYLYTDDACQTEAHLEIREDGTVGGAADQSPESLLQLKALKPGVIQILGVKTSRFLCQRPDGALYGSLHFDPEACSFRELLLEDGYNVYQSEAHGLPLHLPGCKSPHRDPAPRGPARFLPLPGLPPAPPEPPGILAPQPPDVGSSDPLSMVGSQGRSPSYAS
modifications: Fusion Protein
B11: 168 (protein)
chain: HGEGTFTSDLSKQLAKRLVREFIEWLIKGGHSSGKPPPKGGGGGGGSGGGGSGGGGSA[… human IgG4 Fc with changes …]GGGSGSAHPIPDSSPLLQFGGQVRQRYLYTDDACQTEAHLEIREDGTVGGAADQSPESLLQLKALKPGVIQILGVKTSRFLCQRPDGALYGSLHFDPEACSFRELLLEDGYNVYQSEAHGLPLHLPGCKSPHRDPAPRGPARFLPLPGLPPAPPEPPGILAPQPPDVGSSDPLSMVGSQGRSPSYAS
modifications: Fusion Protein
B12: 92 (protein)
chain: HGEGTFTSDLSIQLEEEAVRLFIEWLLATGPVSGAPPPSGGGGGGGSGGGGSGGGGSA[… human IgG4 Fc with changes …]GGGSGSAHPIPDSSPLLQFGGQVRQRYLYTDDACQTEAHLEIREDGTVGGAADQSPESLLQLKALKPGVIQILGVKTSRFLCQRPDGALYGSLHFDPEACSFRELLLEDGYNVYQSEAHGLPLHLPGCKSPHRDPAPRGPARFLPLPGLPPAPPEPPGILAPQPPDVGSSDPLSMVGSQGRSPSYAS
modifications: Fusion Protein
B13: 175 (protein)
chain: HGEGTFTSDKSKQLAKEAVQLFIEWLLAGGPKKIRYSGGGGGGGSGGGGSGGGGSA[… human IgG4 Fc with changes …]GGGSGSAHPIPDSSPLLQFGGQVRQRYLYTDDACQTEAHLEIREDGTVGGAADQSPESLLQLKALKPGVIQILGVKTSRFLCQRPDGALYGSLHFDPEACSFRELLLEDGYNVYQSEAHGLPLHLPGCKSPHRDPAPRGPARFLPLPGLPPAPPEPPGILAPQPPDVGSSDPLSMVGSQGRSPSYAS
modifications: Fusion Protein
B14: 176 (protein)
chain: HGEGTFTSDKSKQLAERAVQLFIEWLLAGGPKKIRYSGGGGGGGSGGGGSGGGGSA[… human IgG4 Fc with changes …]GGGSGSAHPIPDSSPLLQFGGQVRQRYLYTDDACQTEAHLEIREDGTVGGAADQSPESLLQLKALKPGVIQILGVKTSRFLCQRPDGALYGSLHFDPEACSFRELLLEDGYNVYQSEAHGLPLHLPGCKSPHRDPAPRGPARFLPLPGLPPAPPEPPGILAPQPPDVGSSDPLSMVGSQGRSPSYAS
modifications: Fusion Protein
B15: 180 (protein)
chain: HGEGTFTSDKSKQLAERLVQLFIEWLLAGGPKKIRYSGGGGGGGSGGGGSGGGGSA[… human IgG4 Fc with changes …]GGGSGSAHPIPDSSPLLQFGGQVRQRYLYTDDACQTEAHLEIREDGTVGGAADQSPESLLQLKALKPGVIQILGVKTSRFLCQRPDGALYGSLHFDPEACSFRELLLEDGYNVYQSEAHGLPLHLPGCKSPHRDPAPRGPARFLPLPGLPPAPPEPPGILAPQPPDVGSSDPLSMVGSQGRSPSYAS
modifications: Fusion Protein
B16: 177 (protein)
chain: HGEGTFTSDKSKQLAKRAVQLFIEWLLAGGPKKIRYSGGGGGGGSGGGGSGGGGSA[… human IgG4 Fc with changes …]GGGSGSAHPIPDSSPLLQFGGQVRQRYLYTDDACQTEAHLEIREDGTVGGAADQSPESLLQLKALKPGVIQILGVKTSRFLCQRPDGALYGSLHFDPEACSFRELLLEDGYNVYQSEAHGLPLHLPGCKSPHRDPAPRGPARFLPLPGLPPAPPEPPGILAPQPPDVGSSDPLSMVGSQGRSPSYAS
modifications: Fusion Protein

For the test, the target named is T1, Human GLP-1R (Homo sapiens, UniProt P43220).
T1 construct: expressed in transfected cells; host or cells: HEK-293
T1 sequence (P43220 24-463): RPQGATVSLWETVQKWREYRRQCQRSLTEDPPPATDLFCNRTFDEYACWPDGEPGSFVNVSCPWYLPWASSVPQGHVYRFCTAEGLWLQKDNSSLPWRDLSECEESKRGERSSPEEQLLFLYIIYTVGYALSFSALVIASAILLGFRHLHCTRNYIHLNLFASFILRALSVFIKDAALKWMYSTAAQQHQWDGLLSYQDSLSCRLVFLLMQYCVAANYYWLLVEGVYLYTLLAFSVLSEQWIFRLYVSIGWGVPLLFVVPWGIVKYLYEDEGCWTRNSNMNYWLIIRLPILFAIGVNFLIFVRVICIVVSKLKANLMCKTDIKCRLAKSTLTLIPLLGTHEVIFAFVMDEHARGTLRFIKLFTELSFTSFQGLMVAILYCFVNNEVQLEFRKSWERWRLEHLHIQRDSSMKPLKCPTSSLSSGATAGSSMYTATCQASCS
Nature of the test: HTRF cAMP assay in HEK-293 cells, human GLP-1R. The class given is cell-based. As for the experimental part:
Recombinant HEK-293 cells were grown in T175 culture flasks placed at 37° C. to near confluence in medium (DMEM with 10% FBS) and collected in 2 mL vials in cell culture medium containing 10% DMSO in concentrations of 1-5×10^7 cells/mL. Each vial contained 1.8 mL cell suspension. The vials were slowly frozen to −80° C. in an isopropanol chamber, and then transferred to liquid nitrogen for long term storage.
Prior to their use, frozen cells were thawed quickly at 37° C., washed with 20 mL cell buffer (1×HBSS; 20 mM HEPES, 0.1% BSA) and centrifuged for 5 minutes at 900 rpm. Cells were resuspended in assay buffer (cell buffer plus 2 mM IBMX) and adjusted to a cell density of 1×10^6 cells/mL. For measurement, 5 μL cell suspension (final 5×10^3 cells/well) and 5 μL of test compound were added to a well of a 384-well plate, followed by incubation for 30 minutes at room temperature. […] The cAMP content of cells was determined using a kit from Cisbio Corp. (cat. no. 62AM4PEC) based on Homogenous Time Resolved Fluorescence (HTRF).
For orientation: Time-resolved FRET reads energy transfer from a long-lived donor to a nearby acceptor.
Take B1: a half-maximal response (EC50) required 310 pM. This counts as sub-nanomolar.

Molecule B2 registered an EC50 of 124 pM.

In the case of B3, a half-maximal effect (EC50) was put at 216 pM.

The molecule B4 displayed an EC50 of 234 pM.

B5 registered an EC50 of 254 pM.

In turn, B6 gave an EC50 of 123 pM.

In turn, B7 gave an EC50 of 137 pM. This EC50 and that of the molecule before are within 1.5-fold of each other.

The molecule B8 yielded an EC50 of 13.8 pM.

B9 came in with an EC50 of 59.6 pM. This EC50 is about 4.3-fold higher than that of the molecule before.

In turn, B10 came in with an EC50 of 73.8 pM. This EC50 and that of the molecule before are within 1.5-fold of each other.

In turn, B11 showed a half-maximal effective concentration (EC50) of 46.1 pM.

For the molecule B12, the EC50 was 58.9 pM.

For the molecule B13, a half-maximal response (EC50) required 90.8 pM. Against the preceding molecule, the EC50 is about 1.5-fold higher.

As for B14, a half-maximal response (EC50) required 71.8 pM.

Take B15: the EC50 was determined as 406 pM.

As to B16, the EC50 is 48.6 pM.

The EC50 is the concentration at which the effect is half-maximal. Lower therefore signals an effect from little substance.
